In PubChem BioAssay AID504339 (National Center for Advancing Translational Sciences (NCATS), 2011):
Out of some 390,000 compounds screened, about 17,000 (4.4%) were called active. Inconclusive means that the source gave no clear call. Such entries were picked first, then a sample of the others. Calls come from the whole dose curve; as a rule, active = well fitted inhibition curve with a large enough effect; inconclusive = small, poorly fitted or top-dose-only effect; inactive = no such curve, though single readings can be large or run the other way. Where the call is inconclusive, the potency comes from a doubtful curve fit.
Note: nearly all actives have a fitted effect of over 50% in size.
Potency is the fitted concentration of half-maximal effect; tags give direction and shape of the fitted curve.

What follows are molecules tested against Lysine-specific demethylase 4A (Homo sapiens) (UniProt O75164) (assay: qHTS Assay for Inhibitors of JMJD2A-Tudor Domain). Details: AlphaScreen JMJD2A-Tudor / H3K4me3 peptide binding; series mostly up to 114 µM.
Chain of UniProt O75164 (O75164 whole entry, looked up, the tested form may be a part): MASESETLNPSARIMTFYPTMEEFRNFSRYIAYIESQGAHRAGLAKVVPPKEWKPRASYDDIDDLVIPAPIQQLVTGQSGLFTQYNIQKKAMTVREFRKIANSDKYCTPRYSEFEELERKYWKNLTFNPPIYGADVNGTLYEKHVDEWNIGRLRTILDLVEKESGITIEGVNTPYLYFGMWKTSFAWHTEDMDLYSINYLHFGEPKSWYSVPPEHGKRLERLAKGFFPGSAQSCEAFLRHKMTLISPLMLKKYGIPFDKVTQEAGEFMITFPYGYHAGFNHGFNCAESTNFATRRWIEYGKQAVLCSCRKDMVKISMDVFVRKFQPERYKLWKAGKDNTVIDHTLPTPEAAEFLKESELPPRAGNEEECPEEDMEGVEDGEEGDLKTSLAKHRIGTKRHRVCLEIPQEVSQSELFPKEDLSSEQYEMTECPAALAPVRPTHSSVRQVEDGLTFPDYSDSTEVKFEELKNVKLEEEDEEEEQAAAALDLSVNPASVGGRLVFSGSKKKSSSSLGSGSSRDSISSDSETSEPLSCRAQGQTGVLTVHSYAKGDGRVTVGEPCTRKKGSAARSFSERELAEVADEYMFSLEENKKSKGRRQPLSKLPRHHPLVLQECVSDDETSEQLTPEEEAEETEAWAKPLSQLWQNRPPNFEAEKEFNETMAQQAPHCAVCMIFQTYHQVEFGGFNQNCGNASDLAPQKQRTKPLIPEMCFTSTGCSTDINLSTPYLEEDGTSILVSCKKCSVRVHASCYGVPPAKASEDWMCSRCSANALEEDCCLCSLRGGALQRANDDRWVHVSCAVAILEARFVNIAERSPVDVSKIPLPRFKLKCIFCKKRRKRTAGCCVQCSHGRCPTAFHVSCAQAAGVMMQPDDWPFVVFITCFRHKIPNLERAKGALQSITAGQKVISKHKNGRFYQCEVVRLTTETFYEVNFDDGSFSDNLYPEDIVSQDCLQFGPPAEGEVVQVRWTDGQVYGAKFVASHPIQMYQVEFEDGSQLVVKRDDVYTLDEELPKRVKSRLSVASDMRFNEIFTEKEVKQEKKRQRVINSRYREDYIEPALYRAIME
For `CCCCCC(=O)Nc1ccc(-c2nnc3n2CCCCC3)cc1`, the Potency was “inactive”. In the case of `CCCCNC(=O)C1CCN(c2nc3ccc(C)cc3[nH]2)CC1`, the Potency is reported as “inactive”. In the case of `O=C(C[C@H]1C[C@H](C(=O)N2CCOCC2)[C@@]2(CCC3CCCC3)c3[nH]c4cc(-c5ccco5)ccc4c3CCN2C1=O)NCc1ccco1`, the Potency is reported as inconclusive: 35.5 µM [inhibitor, partial curve, poor fit]. In the case of `COCCCNCCCCOc1c(Cl)cc(C)cc1Br`, the Potency is reported as active: 2.51 µM. `CC(C)c1ccc(CN(Cc2ccco2)c2cnc(S(C)(=O)=O)nc2C(=O)Nc2ccccc2)cc1` was tested, and the Potency was inconclusive: 63.1 µM [inhibitor, partial curve]. `COC(=O)c1ccc(Cc2ccc(C(=O)OC)o2)o1` was tested, and the Potency was “inactive”. In the case of `Cc1cc2c3c(c1)C1(SCC(=O)N1c1ccc(F)cc1)C(=O)N3C(C)(C)CC2C` (stereo unspecified), the Potency is reported as inconclusive: 63.1 µM [inhibitor, partial curve]. In the case of `COc1ccc2[nH]cc(/C=N/NS(=O)(=O)c3ccc(C)cc3)c2c1`, the Potency is reported as inconclusive: 31.6 µM [inhibitor, partial curve]. `Cc1c(-c2nnc(SCC(=O)Nc3ccc(Br)cc3)o2)nnn1-c1ccc(F)cc1` was tested, and the Potency was “inactive”. With `O=C(Cn1c(=O)n(Cc2ccc(C(=O)NCc3ccc4c(c3)OCO4)cc2)c(=O)c2ccccc21)Nc1ccc(F)cc1F` the Potency was inconclusive: 56.2 µM [inhibitor, partial curve]. With `NC(=O)C1(Nc2ccccc2)CCCC1` the Potency was “inactive”. In the case of `Cc1ccc(C(=O)N/N=C\c2ccccn2)cn1`, the Potency is reported as active: 79.4 µM. `COc1cccc(/C(O)=C2/C(=O)C(=O)N(CCN(C)C)C2c2ccccn2)c1` (stereo unspecified) was tested, and the Potency was inconclusive: 56.2 µM [inhibitor, partial curve]. In the case of `CCn1ncc(NC(=S)Nc2ccc(OC)c(OC)c2)c1C(N)=O`, the Potency is reported as inconclusive: 25.1 µM [inhibitor, partial curve]. For `O=C(Nc1cccc(C(=O)O)c1)/C(=C\c1ccccc1)NC(=O)c1cccc2ccccc12`, the Potency was “inactive”. For `CC(=O)c1ccc(NC(=O)CSc2c(C(C)C)cnc3c2c(=O)n(C)c(=O)n3C)cc1`, the Potency was inconclusive: 56.2 µM [inhibitor, partial curve]. For `CCCCNc1c(-c2ccc(OC)c(Sc3ccc(OC)cc3)c2)nc2ccccn12`, the Potency was active: 44.7 µM. For `COc1ccc(Nc2nc(Nc3ccc(OC)cc3OC)nc(N3CCOCC3)n2)c(OC)c1`, the Potency was inconclusive: 12.6 µM [inhibitor, full curve]. `Cc1cc(-c2ccccc2)c(C#N)c(=S)[nH]1` was tested, and the Potency was active: 6.31 µM. In the case of `C=CCN(C(=O)CCC(=O)Nc1cc(C)on1)C(C(=O)NC1CCCC1)c1ccc(OC)c(OC)c1` (stereo unspecified), the Potency is reported as “inactive”. For `CCCn1c(SCC(=O)c2ccc3c(c2)OCCO3)nnc1C(C)C`, the Potency was inconclusive: 3.98 µM [inhibitor, single point]. With `CCCn1c(SCC(N)=O)nnc1-c1ccco1` the Potency was inconclusive: 56.2 µM [inhibitor, partial curve]. With `O=C(NCCCc1cnc[nH]1)NCCCN(Cc1ccc(Cl)cc1)c1ccc(Br)cn1` the Potency was active: 44.7 µM. For `CCOC(=O)c1cccc(OCC(O)CNCCOc2ccccc2F)c1` (stereo unspecified), the Potency was active: 17.8 µM. For `CCc1cc(C(=O)OC)c(NC(=O)CSc2nccn2C)s1`, the Potency was inconclusive: 56.2 µM [inhibitor, partial curve, poor fit]. In the case of `CCOc1ccc(C(=O)Nc2ccc(-c3nnc4n3CCCCC4)cc2)cc1OCC`, the Potency is reported as “inactive”. In the case of `O=C(c1ccccc1)N1CCCC(C(=O)N2CCN(c3ccccc3)CC2)C1` (stereo unspecified), the Potency is reported as active: 50.1 µM. With `COc1ccccc1NC(=O)N(Cc1cc2cc(OC)c(OC)cc2[nH]c1=O)CC1CCCO1` (stereo unspecified) the Potency was “inactive”. `Oc1ccc(C=NC2CCCCC2)cc1` was tested, and the Potency was “inactive”. In the case of `Cc1cc(C)c(S(=O)(=O)Nc2cc(Cl)c3oc4c(c3c2)C(=O)CCC4)cc1C`, the Potency is reported as “inactive”. With `O=C(c1cnc2c(c1)COc1ccccc1-2)c1ccccc1O` the Potency was inconclusive: 35.5 µM [inhibitor, partial curve]. For `COc1cc(/C=N/n2c(-c3ccccc3)n[nH]c2=S)cc(OC)c1O`, the Potency was active: 3.16 µM. In the case of `COc1ccc(/C=N/NC(=O)C(C)N(c2ccc(OC)cc2)S(C)(=O)=O)cc1` (stereo unspecified), the Potency is reported as inconclusive: 20 µM [inhibitor, full curve, poor fit]. `COC(=O)c1ccc(NC(=O)N2CCN(c3nnc(C)c4c(C)n(-c5ccccc5)nc34)CC2)cc1` was tested, and the Potency was “inactive”. With `COc1ccc(S(=O)(=O)NCC(c2ccco2)N2CCN(c3ccc(F)cc3)CC2)cc1` (stereo unspecified) the Potency was inconclusive: 56.2 µM [inhibitor, partial curve]. With `Cc1cccc(C(=O)Nc2ccc(C(=O)OCc3cc(=O)n4c(C)csc4n3)cc2)c1` the Potency was inconclusive: 50.1 µM [inhibitor, partial curve]. For `OC1(c2ccc(OC(F)F)cc2)CSC(=Nc2cccnc2)N1Cc1ccco1` (stereo unspecified), the Potency was inconclusive: 100 µM [inhibitor, single point]. `COCCCn1c(SCC(=O)n2c(C)c(C)c3ccccc32)nnc1-c1ccoc1C` was tested, and the Potency was inconclusive: 79.4 µM [inhibitor, partial curve]. `CSCCC(NC(N)=O)C(=O)Nc1cccc(S(=O)(=O)N2CCOCC2)c1` (stereo unspecified) was tested, and the Potency was “inactive”. For `CC(=O)c1ccc2c(c1)N(C)c1ccccc1S2`, the Potency was “inactive”. `Cc1ccc(-c2noc(CSc3nnc(-c4ccncc4)n3-c3ccc(C)cc3)n2)cc1` was tested, and the Potency was inconclusive: 50.1 µM [inhibitor, partial curve]. With `CC(=O)Nc1ccc(NC(=O)CSc2ccc(-c3sc(C)nc3C)nn2)cc1` the Potency was “inactive”. With `O=C1/C(=C/c2cccs2)SC(=S)N1CCC(=O)N1CCCCC1CCO` (stereo unspecified) the Potency was inconclusive: 63.1 µM [inhibitor, partial curve, poor fit]. For `COc1ccc(/C(O)=C2/C(=O)C(=O)N(CCN(C)C)C2c2ccccn2)cc1OC` (stereo unspecified), the Potency was inconclusive: 89.1 µM [inhibitor, single point]. In the case of `COc1cc(/C=N/N2CCN(Cc3ccc(Cl)cc3)CC2)cc(Br)c1O`, the Potency is reported as active: 44.7 µM. For `COc1ccc(/C=N/NC(=O)C[n+]2ccccc2)c(OC)c1OC`, the Potency was inconclusive: 39.8 µM [inhibitor, single point].
